The whole screen tested about 410,000 compounds, of which about 7,200 (1.8%) were called active. Inconclusive results, whose numbers are uncertain, are shown with a selection of clear calls. The call rests on the fitted dose curve; in most records, active means well fitted activation curve with a large enough effect; inconclusive means small, poorly fitted or top-dose-only effect, or another doubt; inactive means no such curve, though single readings can be large or run the other way. Potencies of inconclusive entries are doubtful fits and often do not repeat.
experiment: qHTS of TDP-43 Inhibitors; conditions: TDP-43 expressing yeast growth rescue, BacTiter-Glo, 24 h; growth rescue (activation): at 46.1 µM (top of the series) unless noted; further: nearly all actives have a fitted effect of over 50% in size; on growth rescue (activation): % of control where 0% means no effect
Outline: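 Yeast expressing TDP-43 (pregrown in raffinose, seeded at OD600=0.02 in galactose medium) exposed to compounds 24 hr at 30 deg C. Growth read by BacTiter-Glo luminescence; rescue of toxicity appears as increased signal.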
Potency means the concentration at half of the fitted maximal effect; tags describe the fitted curve by direction and shape.

Growth rescue (activation), inactive:
Oc1c(I)cc(Cl)c2cccnc12 -67.2%
C=C(C)COc1ccc(-c2[nH]ncc2-c2ccc(Br)cc2)c(O)c1 -90.7%
COCc1cc(CNC(=O)C2CCC(=O)N(Cc3cccc(OC)c3)C2)[nH]n1 (stereo unspecified) 15.1%
CSc1nc(-c2ccc(F)cc2)nc2c1Cc1c(CO)cnc(C)c1O2 21.5%
COCCNc1nc(N)c([N+](=O)[O-])c(NCC2CCCO2)n1 (stereo unspecified) 0.712%
CN(C)S(=O)(=O)Oc1ccsc1C(=O)Nc1ccccc1Cl 44.2%
Cc1c(Cl)cccc1NC(=O)CCn1c(=O)c2cccn2c2ccccc21 18%
O=C(CSc1cn(CC(=O)N2CCCCC2)c2ccccc12)Nc1ccccc1F 24.5%
COc1ccc(C(=O)c2cn(Cc3ccc(C)cc3)c3cc4c(cc3c2=O)OCO4)cc1 15.9%
C[C@H]1CCC[C@]2(O[C@@H](CCO)C[C@H](O)[C@H]2O)O1 -0.852%
COc1ccc(N)cc1NC(=O)CN1CCOCC1 13.4%
CCc1nc2ccc(C(=O)NCCCN3CCCC3=O)cn2c1N(C)C(=O)C1CCCCC1 10.1%
CCCNC(=O)CSc1nnc(-c2ccco2)n1C -0.274%
CC(=O)c1cccc(NC(=O)C(OC(=O)/C=C/c2ccc3c(c2)OCO3)c2ccccc2)c1 (stereo unspecified) -3.74%
CC(C)C(=O)OC1=CN(Cc2ccccc2)S(=O)(=O)c2ccccc21 12.9%
Cc1ccc(C)c(S(=O)(=O)N2CCC(c3nc4c(nnn4Cc4ccc5c(c4)OCCO5)c(=O)[nH]3)CC2)c1 -1.34%
Cc1nc(SCC(=O)NC(C)c2ccccc2)c2oc3ccccc3c2n1 (stereo unspecified) 13.6%
COc1ccc(/C=C/C(=O)NC(=S)NNC(=O)Cc2cccs2)cc1OC 10.1%
Cn1nnnc1SCCCNCc1cccc(OCc2ccc(Cl)cc2)c1 5.55%

Growth rescue (activation), inconclusive:
Cc1ccc(C)c(C(O)c2ncc(-c3ccccc3F)[nH]2)c1 (stereo unspecified) 21.9% [activator]
Cc1ccc2ccc(C#N)cc2c1O -79.3% [activator]
C=C[C@]1(C)C=C2C(=O)[C@@]3(O)OC(=O)[C@@]4(CCCC(C)(C)[C@H]34)[C@@]2(O)CC1 -95.8% [activator]

Potency, inconclusive:
COc1ccc(CCCc2n[nH]c(=S)o2)c(C)c1 35.5 µM [activator, single point]
Cc1ccc(NC(=O)C2CCCN2C(=O)OCc2ccccc2)cc1C (stereo unspecified) 14.1 µM [activator, single point]
COCCN1Cc2cccc(C(=O)Nc3ccc(C)cc3C)c2C1=O 35.5 µM [activator, partial curve]
O=C(CCCOc1ccc(Cl)cc1)N1CCCCCC1 2.82 µM [activator, full curve, poor fit]
CCOc1cc(/C=C(\C#N)c2nc(-c3cccs3)c(NC(C)=O)s2)ccc1O 35.5 µM [activator, single point]
CCCCSCCCNC(=S)Nc1ccccc1C 12.6 µM [activator, partial curve, poor fit]
COc1cccc(CN2CCC2(C)C(=O)Nc2ccc(Cl)c(Cl)c2)c1F (stereo unspecified) 4.47 µM [activator, full curve, poor fit]
C=CCNC(=S)Nc1ccc(Br)cc1F 35.5 µM [activator, partial curve]
CCOc1ccccc1NC(=O)CSc1nccn1-c1ccc(Cl)cc1 6.31 µM [activator, partial curve, poor fit]
COc1ccccc1-c1noc(CSc2nc3ccc(C)cc3[nH]2)n1 14.1 µM [activator, partial curve]
COc1cc(NC(=O)CCS(=O)(=O)c2nc(-c3cccs3)cc(C(F)(F)F)n2)cc(OC)c1OC 7.08 µM [activator, full curve]
O=C(NC1CCCc2ccccc21)C1CCN(S(=O)(=O)c2ccccc2F)CC1 (stereo unspecified) 35.5 µM [activator, single point]
CCc1ccc(C(=O)OCC(=O)NCCNC(=O)COC(=O)c2ccc(CC)cc2)cc1 17.8 µM [activator, single point]
COc1ccc(C(=O)COC(=O)c2cc(S(=O)(=O)N3CCCCC3)ccc2N2CCOCC2)c(OC)c1 7.94 µM [activator, partial curve]
COc1ccc2cc3cc(C(=O)NCCC(C)C)oc3nc2c1 0.316 µM [activator, full curve, poor fit]
COCCNC(=O)CCc1nc2cccnc2n1Cc1ccc(OC)cc1 8.91 µM [activator, partial curve]
O=C(CN1CCN(c2ccccc2O)CC1)Nc1ccccc1C(=O)NCCc1ccccc1 31.6 µM [activator, partial curve]
CCC(=O)Nc1nc(-c2ccc3c(c2)OCCO3)cs1 12.6 µM [activator, single point]
COc1cc(CC(=O)Nc2ccccc2N2CCCCC2)cc(OC)c1OC 1.41 µM [activator, partial curve]
CN(CC(=O)Nc1ccc(S(N)(=O)=O)cc1)C1CCCCC1 31.6 µM [activator, single point]
Cc1ccc2nc3c(cc(C(=O)NCCCn4ccnc4)n3C)c(=O)n2c1 7.08 µM [activator, partial curve]
NC(=O)C[n+]1ccc(/C=N/O)cc1 3.98 µM [activator, partial curve]
COC(=O)c1scc(S(=O)(=O)C(C)C)c1N/N=C(\C#N)C(=O)c1ccc(Cl)cc1 35.5 µM [activator, single point]
Cc1ccc(-c2nc(CS(=O)CC(=O)N3CCN(c4ccccc4)CC3)c(C)o2)cc1 (stereo unspecified) 35.5 µM [activator, single point]
O=C(c1ccccc1)c1ccccc1NC(=O)c1ccccc1C(=O)O 11.2 µM [activator, partial curve]
COc1cc(OC)cc(C(=O)NC2CCCCCCC2)c1 6.31 µM [activator, partial curve]
Cn1c(CSCc2ccc(Cl)cc2Cl)n[nH]c1=S 35.5 µM [activator, single point]
Cc1onc(-c2c(Cl)cccc2Cl)c1C(O)c1ccc(F)cc1 (stereo unspecified) 31.6 µM [activator, single point]
CC(C)COc1cccc(C(=O)NC(=S)NCc2cccnc2)c1 11.2 µM [activator, partial curve]
CC(C(=O)Nc1ccc2nccnc2c1)N1C(=O)C2C3C=CC(C3)C2C1=O (stereo unspecified) 8.91 µM [activator, partial curve]
CCOc1ccccc1NC(=O)c1nc(S(=O)(=O)Cc2ccccc2)ncc1Cl 2.82 µM [activator, partial curve]
Cc1ccc(-c2csc(N3CCC[C@@H]3C(=O)NCCn3c(C(F)(F)F)nc4ccccc43)n2)cc1 14.1 µM [activator, single point]
COc1cccc(Cn2c(=O)sc3ccccc3c2=O)c1 11.2 µM [activator, single point]
CN(Cc1ccccc1)S(=O)(=O)c1cccc2nsnc12 20 µM [activator, partial curve]
Cc1cccc(C)c1Nc1c(-c2ccc(Cl)s2)nc2ncccn12 14.1 µM [activator, single point]
N#Cc1ccc(CSc2nnc(-c3ccccn3)n2-c2ccc(Cl)cc2)cc1 35.5 µM [activator, partial curve]
Cn1ncc(Cl)c1C(=O)N1CCN(S(=O)(=O)c2ccc(Cl)s2)CC1 35.5 µM [activator, single point]
CC1CCN(C(=O)COC(=O)c2cc3ccccc3cc2O)CC1 20 µM [activator, partial curve]
O=C(NCc1ccc(F)cc1)c1cc2c(s1)CCCC2 35.5 µM [activator, partial curve, poor fit]
Cc1cccc(N=c2c([N+](=O)[O-])nn(-c3ccc(Cl)cc3)n2O)c1 35.5 µM [activator, single point]
COc1cccc(NC(=O)CC2C(=O)OCCN2Cc2ccccc2)c1 (stereo unspecified) 14.1 µM [activator, single point]
CCCCCn1c(CN2CCN(c3cccc(Cl)c3)CC2)nc2c1c(=O)[nH]c(=O)n2C 22.4 µM [activator, single point]
CCOCCCNC(=S)N1CCCN(c2nc3cc(C)cc(C)c3cc2C#N)CC1 31.6 µM [activator, single point]
Cc1ccc(C(=O)Nc2ccc(Cl)c(-c3nc4ncccc4o3)c2)c(C)c1 0.316 µM [activator, full curve, poor fit]

Potency, active:
COc1ccc(NC(=O)c2cc3ccccc3o2)cc1OC 12.6 µM
CCOC(=O)C1CCN(C(=O)c2oc3ccc4c(c3c2C)C(O)CC2(CCCCC2)O4)CC1 (stereo unspecified) 25.1 µM
Cc1ccccc1NC(=O)CSC(=O)c1ccccc1 14.1 µM
Cc1ccc(CSCC(=O)N2CCN(c3cc(Cl)ccc3C)CC2)cc1 17.8 µM
CCOc1ccc(CNC(=O)c2c(C)nn(-c3ccc(F)cc3)c2-n2cccc2)cc1 14.1 µM

— PubChem BioAssay AID652104 (National Center for Advancing Translational Sciences (NCATS), 2013)
